In all, about 110,000 compounds were measured (“z-score”: median about -0.1, highest 2% from about 2 on). The list shows a part of the results. Activity calls are given as the source filed them.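 The calls were made as follows: active = z-score in the third read window above 3 or below -3; inactive = the rest.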
Target: Metabotropic glutamate receptor 8 (Rattus norvegicus) (UniProt P70579)
Test: rat mGluR8 modulators via GIRK flux, primary screen, cell-based, thallium flux, HTS (AID 488969)
Settings: HEK293 rat mGluR8, GIRK (G protein-gated inwardly rectifying potassium channel) thallium flux, FluoZin2; at 10 µM; stronger effect = higher value; submaximal glutamate (EC20) added with thallium

UniProt P70579, sequence (P70579 whole entry, looked up): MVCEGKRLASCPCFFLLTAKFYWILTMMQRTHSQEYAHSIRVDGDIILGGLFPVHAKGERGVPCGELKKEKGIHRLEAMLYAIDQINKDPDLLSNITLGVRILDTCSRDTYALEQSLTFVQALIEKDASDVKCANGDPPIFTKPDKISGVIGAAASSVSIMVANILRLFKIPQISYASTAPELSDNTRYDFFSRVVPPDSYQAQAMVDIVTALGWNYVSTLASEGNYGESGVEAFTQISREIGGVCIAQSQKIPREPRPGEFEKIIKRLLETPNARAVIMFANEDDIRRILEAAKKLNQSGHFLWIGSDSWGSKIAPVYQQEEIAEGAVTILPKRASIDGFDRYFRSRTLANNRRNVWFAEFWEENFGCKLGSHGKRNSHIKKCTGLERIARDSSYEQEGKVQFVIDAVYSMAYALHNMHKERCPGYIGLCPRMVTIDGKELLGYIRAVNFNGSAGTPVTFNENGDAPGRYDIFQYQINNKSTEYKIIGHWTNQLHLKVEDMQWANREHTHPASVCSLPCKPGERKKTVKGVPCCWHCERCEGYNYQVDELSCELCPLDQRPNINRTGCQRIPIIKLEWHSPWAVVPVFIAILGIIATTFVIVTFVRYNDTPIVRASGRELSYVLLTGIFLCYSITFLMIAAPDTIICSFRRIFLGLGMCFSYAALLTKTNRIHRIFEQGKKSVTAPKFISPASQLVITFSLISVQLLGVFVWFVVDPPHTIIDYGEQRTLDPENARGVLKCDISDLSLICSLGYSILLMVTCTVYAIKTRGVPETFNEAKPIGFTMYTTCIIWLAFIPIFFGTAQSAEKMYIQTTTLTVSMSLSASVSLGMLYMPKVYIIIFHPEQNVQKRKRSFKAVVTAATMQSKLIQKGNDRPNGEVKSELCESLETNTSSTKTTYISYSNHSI

SMILES	z-score
O=C(c1cc2sccc2n1Cc1ccc(F)cc1)N1CCCc2ccccc21	0.225
CC12C(=O)N(n3cnnc3)C(=O)C1C1C=CC2C1 (stereo not drawn)	-0.265
COC(=O)CN(C#N)c1nc(C)cc(C)n1	0.691
Cc1c(C(=O)NCCSCc2ccccc2Cl)cccc1[N+](=O)[O-]	-0.314
CC(=O)NC1=NN(C(C)=O)C(c2ccc(C(C)C)cc2)S1 (stereo not drawn)	-0.374
O=C(CN(Cc1ccco1)C(=O)CNS(=O)(=O)c1ccccc1)NCc1ccccc1	-0.989
COc1cc(NC(=O)COC(=O)CSc2cc(C)ccc2C)c(C)cc1[N+](=O)[O-]	-0.224
O=C(O)C1C2C=CC(C3CC23)C1C(=O)NCCc1ccccc1 (stereo not drawn)	0.335
Cc1ccc(S(=O)(=O)N2CCCCC2)cc1NC(=O)c1ccc2ccccc2n1	-0.156
O=C(Nc1cccc(F)c1)C1CC(=O)N(c2ccc(Cl)cc2)C1 (stereo not drawn)	0.61
CCCCNC(=O)NNC(=O)c1ccco1	-0.188
Cn1c(SCC(=O)NCc2ccco2)nnc1-c1ccccc1	0.739
CCCCN(CCCC)S(=O)(=O)c1ccc(NC(=O)Cc2cccs2)cc1	-0.216
CCOC(=O)C(=O)/C(C#N)=C/Nc1ccc(F)cc1	0.16
Cc1ccccc1N1C(=O)C(Cl)=C(N2CCCCCC2)C1=O	-1.3
Cc1cccc(N(CC(=O)N/N=C/c2ccc(OCC(=O)NCc3ccco3)cc2)S(C)(=O)=O)c1C	-1.22
Cc1cccc(NC(=O)Cn2c(=O)n(Cc3ccco3)c(=N)c3c4c(sc32)COC(C)(C)C4)c1	-1.55
CN(C)/C=C/C(=O)/C=C/c1cn(-c2ncc(C(F)(F)F)cc2Cl)c2ccccc12	active: 5.57
COC(=O)Nc1cc(C(F)(F)F)ccc1N1CCN(c2ccccc2)CC1	0.369
O=c1[nH]c(CN2CCN(c3ccccc3)CC2)nc2scc(-c3ccccc3)c12	1.24
c1ccc(CN2CCOCC2)cc1	0.378
Cc1cc(C2C(C#N)=C(N)SC(N)=C2C#N)c(C)s1	-1.13
S=C(Nc1ccccc1)Nc1nc2ccccc2n1CCOc1ccc(Br)cc1	1.24

SMILES	z-score
CCS(=O)(=O)n1nc(-c2ccccc2)nc1SC	-0.173
COc1cccc(NC(=S)NNC(=O)C(C)n2nc(C)c([N+](=O)[O-])c2C)c1 (stereo not drawn)	-0.128
Cc1cccc(NC(=O)c2oc3c(c2C)C(=O)CC(C)(C)C3)n1	-0.491
COc1ccc(-c2cn3c(C)c(C(=O)Nc4ccncc4)sc3n2)cc1	0.443
Cc1ccc(N2CC(C(=O)NCc3ccc4c(c3)OCO4)CC2=O)cc1C (stereo not drawn)	0.0044
COc1ccc(C(=O)/C=C/c2cccs2)c(OC(=O)c2cccc([N+](=O)[O-])c2)c1	0.158
Cc1cc(C)nc(SCC(=O)c2ccc3c(c2)OCCO3)n1	-0.899
CCN(CC)C(=O)C(C)N(C#N)c1nc(C)cc(C)n1 (stereo not drawn)	-0.341
COc1ccc(N(CC(=O)O)S(C)(=O)=O)cc1OC	-0.393
COc1cccc(/C=C/C(=O)OCC(=O)Nc2ccc(S(=O)(=O)N3CCCC3)cc2)c1	-0.238
O=c1c(C=NCCCn2ccnc2)c(-c2ccccc2)[nH]n1-c1nc2ccccc2s1	-1.01
COC(=O)c1ccccc1NC(=O)CNc1cc(OC)c(OC)cc1C	-0.212
CCC(C)NC(=O)c1cc(CC(C)C)on1 (stereo not drawn)	0.203
O=C(CN1CCN(S(=O)(=O)c2ccc(Cl)cc2)CC1)NC(=O)NC1CCCCC1	-0.219
Cc1sc2ncnc(NCCc3ccc(S(N)(=O)=O)cc3)c2c1C	0.0936
c1ccc(CCN2CCN(c3ncnc4c3cnn4-c3ccccc3)CC2)cc1	0.0352
O=C(Nc1cccc(O)c1)c1cc2nc(-c3ccccc3)cc(-c3ccccc3)n2n1	-0.00871
Cc1cn2c(-c3cccnc3)nnc2s1	0.919
CCCCc1nc2c(=O)[nH]c3ccccc3c2o1	-0.274
C=CCn1c(-c2ccccc2)nc2nc3ccccc3nc21	-0.144
COC(=O)NCCOC(=O)N(O)c1ccc(Br)cc1	-0.151
O=C(CSc1nc2ccccc2o1)NCc1ccco1	0.00156
C/C(=N\NC(=O)Cc1ccc(Cl)cc1)c1ccccn1	0.312

SMILES	z-score
COc1ccc2nc(C)cc(SCC(=O)NNC(=O)COc3ccc(C)cc3)c2c1	-0.000743
O=C(Nc1nc2ccccc2n1CCOc1ccccc1)c1ccco1	0.878
CC(=O)Nc1nc(-c2cccs2)cs1	-0.281
COc1ccc(-c2csc(NC(=O)C3CC(=O)N(c4ccc5c(c4)OCCO5)C3)n2)cc1 (stereo not drawn)	-0.0726
Cc1ccc(OCCSc2nnc(-c3cccs3)n2C)cc1	-0.185
COc1ccc(OC)c(CNC(=O)COc2cc(=O)n(C)c3ccccc23)c1	0.148
COc1ccc(/C=N/NC(=O)c2ccc(=O)[nH]n2)cc1OC	-0.178
CCC(=O)Nc1ccc(S(=O)(=O)NCCc2ccccc2)cc1	-0.234
O=C(CSc1ncccn1)Nc1ccc(N2CCOCC2)cc1	-0.202
COc1ccc(CC(=O)NC(C)c2nnc(SCCOc3ccc(OC)cc3)n2C)cc1 (stereo not drawn)	-0.475
COC(=O)c1cc2sccc2n1Cc1nc(-c2cccc(Cl)c2)oc1C	-0.177
O=C(Nc1ccc(NC(=O)C2CC2)cn1)c1ccccc1Cl	0.115
COc1ccc(OC)c(Nc2nc(-c3cccc([N+](=O)[O-])c3)nc3ccccc23)c1	-0.0845
Cc1ccc(NC(=O)c2cc(S(=O)(=O)c3ccccc3)ccc2Cl)cc1	-0.0678
O=C(Nc1ccc(S(=O)(=O)NCc2ccco2)cc1)c1ccncc1	0.137
Cc1nnc(-c2ccc(Oc3ccc(C)c(C)c3)c([N+](=O)[O-])c2)o1	-1.15
COc1ccc(OC)c(C=Nc2ccccc2-c2nc3ccccc3[nH]2)c1	-0.659
CCC1CCc2[nH]nc(C(=O)O)c2C1 (stereo not drawn)	-1.27
C=CCNC(=S)N/N=C(\C)c1ccc(OC)cc1	2.03
CCOc1ccc(N(CC(=O)NC(C)(C)C)S(=O)(=O)c2c(C)noc2C)cc1	-0.546
Cc1cc(C)cc(NC(=O)CSc2nnc(-c3ccccc3Br)o2)c1	-0.268
C=CCSc1nnc(NC(=O)CSc2nc(CCC)cc(=O)[nH]2)s1	-2.18
CC(=O)N1c2ccccc2Oc2cc3ccccc3cc21	-0.261

SMILES	z-score
Cc1cc(C(C)(C)C)cc(S(=O)(=O)Nc2ccc(O)c(C(=O)O)c2)c1C	-0.214
COc1cccc(-c2nc(-c3ccccn3)no2)c1	-0.111
O=C(Cn1c(=O)[nH]n(-c2ccccc2)c1=O)N1CCCc2ccccc21	0.648
Cc1cccc(NC(=S)NC(C)CCc2ccccc2)c1 (stereo not drawn)	0.2
CC1CC(C)(C)N(C(=O)CSc2ccc(-c3ccc(F)cc3)nn2)c2ccccc21 (stereo not drawn)	-0.024
Clc1ccc(CSc2nnc(CNc3cccc(Cl)c3)o2)cc1	-0.666
Cn1cccc1C1NC(=O)c2c(sc3c2CCC(C(C)(C)C)C3)N1 (stereo not drawn)	0.481
COC(=O)C1=C(C(=O)OC)C(c2cc(Cl)ccc2O)c2sc(=O)[nH]c2S1 (stereo not drawn)	-0.643
CC(C)[C@H](NC(=O)c1ccc(C(C)(C)C)cc1)C(=O)Nc1nnc(C2CC2)s1	-0.921
Cc1ccc(NC(=O)CSc2nnnn2C)cc1S(=O)(=O)N(C)C	-0.194
Cc1cc(C)n(-c2nncn2/N=C/c2ccccc2F)n1	-0.0531
CCN1CCN(C(=O)CSc2cc(=O)n(CC)c3ccccc23)CC1	-0.0483
O=c1nc2ccccc2c2n1CC(CN1CCN(Cc3ccccc3)CC1)N2 (stereo not drawn)	-0.482
CCOC(=O)c1cnc(SCCc2ccccc2)nc1N	-0.386
Cc1cnc(NC(=O)CSc2nnc(COc3c(C)cccc3C)o2)s1	-0.236
CN(CC(=O)OCC(=O)NC(=O)c1cccn1C)S(=O)(=O)c1ccc(Cl)cc1	-0.459
CCCCN(CC)c1nc(N)c2c(N)nc(OCC)cc2c1C#N	-0.0208
CSc1ccccc1NC(=S)Nc1cccc(C(F)(F)F)c1	0.183
COc1ccc(Nc2ncccc2C(=O)NCc2ccccc2)cc1	0.0521
COc1ccc(CNc2nc(NCc3ccc(OC)c(OC)c3)n(C(=O)c3cccs3)n2)cc1OC	-1.01
COc1cccc(C(=O)Nc2nnc(C3CCCO3)s2)c1 (stereo not drawn)	-0.0731
COc1ccc(S(=O)(=O)NCCSC(C)(C)C)c(Cl)c1Cl	-0.144
COC(=O)CSc1nc(N)nc(C)c1Br	0.0483

SMILES	z-score
Cc1ccc(CN(c2ccc(C(=O)NCc3ccccn3)cc2)S(C)(=O)=O)cc1	-0.144
CCCCCCCC[n+]1cccc(C(=O)N(CC)CC)c1	-0.179
C=CCC(NCc1ccco1)c1ccc(OC)cc1 (stereo not drawn)	0.032
CCn1ncc(/C=N/NC(=O)c2ccc3c(c2)OCO3)c1C	-0.0337
Cc1ccc(C2C(C(=O)O)c3ccccc3C(=O)N2C)o1 (stereo not drawn)	-0.116
C=CCNC(=O)c1cc(=O)c2ccccc2o1	0.446
CCOC(=O)c1sc(NC(=O)c2cc(S(=O)(=O)N3CCOCC3)ccc2C)nc1C	-0.215
O=C(/C=C/NNC(=O)c1ccc(Br)cc1)c1ccccc1	0.387
Cc1onc(-c2c(Cl)cccc2Cl)c1C(=O)NC(=S)Nc1sc2c(c1C(N)=O)CCC(C)C2 (stereo not drawn)	-0.371
CCOC(=O)c1c(-c2ccccc2)csc1NC(=O)CSc1nc(N)cc(N)n1	-0.344
CCCn1c(Nc2ccccc2C)nc2ccccc21	0.583
Cc1ccc(-c2csc3ncnc(Sc4nnc(CN5CCCCCC5=O)o4)c23)cc1	-1.8
Cn1ccc(C(=O)N2CCCc3ccccc32)n1	-0.0997
O=C(NC1(C(F)(F)F)NC(=O)N(c2ccc(F)cc2)C1=O)c1cccs1 (stereo not drawn)	-0.139
O=C(NC(=S)N1CCCCC1)C12CC3CC(CC(C3)C1)C2	active: 5.6
Cc1ccc(C(=O)OCC(=O)N2CC(=O)Nc3ccccc32)s1	0.331
O=C(O)c1cnc(-c2ccccc2)nc1Sc1cccc(Cl)c1	-1.1
CC(C)(C)n1ncc2c(=O)n(Cc3c(F)cccc3Cl)cnc21	0.171
COCc1cc(C)nc(SCC(=O)Nc2cccc(C)c2)c1C#N	-0.237
CSc1ccc(-c2nnn(Cc3ccccn3)n2)cc1	-0.621
O=C(NC(=S)Nc1ccc(S(=O)(=O)Nc2nccs2)cc1)c1ccc(F)cc1	0.00534

Source: PubChem BioAssay AID488969 (Vanderbilt High Throughput Screening Facility, 2010)
